In PubChem BioAssay AID1671194 (National Center for Advancing Translational Sciences (NCATS), 2021):
In all, about 140,000 compounds went through this assay and about 240 (0.17%) were called active. Inconclusive means that the source gave no clear call. Such entries were picked first, then a sample of the others. The call rests on the fitted dose curve; in most records, active means well fitted inhibition curve with a large enough effect; inconclusive means small, poorly fitted or top-dose-only effect; inactive means no such curve, though single readings can be large or run the other way. Potencies beside an inconclusive call are fits to weak or partial responses and may not hold up.

experiment: Primary qHTS assay for inhibitors of alpha-synuclein gene (SNCA) expression; settings: HEK-293 SNCA-luciferase knock-in, luminescence, 24 h; series mostly up to 57.2 µM; further: nearly all actives have a fitted effect of over 45% in size
Potency means the concentration at half of the fitted maximal effect; tags describe the fitted curve by direction and shape.

Potency, inconclusive:
O=C(NC1CCN(c2cc(-c3cccs3)[nH]n2)C1)c1cccc(Br)c1 (stereo not drawn) 17.8 µM [inhibitor, single point], Cc1ccc(C(=O)N2CCc3sc(C(=O)NCc4ccc(N(C)C)cc4)cc3C2)cc1 3.55 µM [inhibitor, partial curve, poor fit], O=C(c1cccc(F)c1)N1CCC[C@H]1c1nc(-c2ccccc2)no1 39.8 µM [inhibitor, single point], Cc1cccc(C(=O)N2CCCC(Cc3ncc(C)n3Cc3ccccc3)C2)c1 (stereo not drawn) 25.1 µM [inhibitor, single point], CCCNC(=O)N1CCCN(Cc2ccc3c(c2)OCO3)c2ccccc21 7.94 µM [inhibitor, partial curve, poor fit], Cc1ccc(-n2ncc(C(=O)NCc3ccccc3)c2C2CCN(C(=O)OC(C)(C)C)CC2)cc1 31.6 µM [inhibitor, single point], Cc1cc(Nc2cccc(Cl)c2)nc2ccc(NC(=O)Cc3ccc(Cl)cc3)cc12 39.8 µM [inhibitor, single point], CC1=C[C@@H](CNC(=O)COc2ccccc2)[C@H](C(C)C)C[C@H]1CC(=O)NCCN(C)C 1 µM [inhibitor, full curve, poor fit], CC1(C(=O)Nc2ccccc2)CN(Cc2ccccc2)Cc2ccc(N3CCOCC3)nc21 (stereo not drawn) 15.8 µM [inhibitor, single point], CCOC(=O)CCNC(=O)NCC(=O)N1CCCCCNC(=O)CC1c1ccccc1 (stereo not drawn) 7.94 µM [inhibitor, single point], CCCSc1oc(-c2ccco2)nc1S(=O)(=O)c1ccc(Cl)cc1 35.5 µM [inhibitor, single point], COc1ccc(Cl)cc1C(=O)N1CCCN(c2cc(-c3ccc(C)c(C)c3)[nH]n2)CC1 31.6 µM [inhibitor, single point], CN1CCC(OC2CCN(C(=O)c3ccc(Br)o3)CC2)CC1 14.1 µM [inhibitor, partial curve, poor fit], COC(=O)C(NC(=O)CCc1c(C)nc2cc(-c3cccc(F)c3)nn2c1C)C(C)C (stereo not drawn) 25.1 µM [inhibitor, single point], COc1cccc(CNC(=O)c2ccc3c(c2)N(C(=O)c2ccc(F)cc2)CC3)c1 3.16 µM [inhibitor, single point], O=C(Cn1cc2c(n1)CCCC2)Nc1cc(C(F)(F)F)ccc1Cl 14.1 µM [inhibitor, single point], CCCn1cc(S(=O)(=O)c2ccccc2)c(=O)c2cc(F)c(N3CCCCCC3)cc21 0.708 µM [inhibitor, full curve, poor fit], Cn1cccc1CN1CCC2(CC1)CN[S+](=O)([O-])c1ccccc1N2 8.91 µM [inhibitor, single point], O=[S+]([O-])(NCC1CN(Cc2ccc3[nH]ccc3c2)CC12CN(c1ccccc1)C2)c1ccccc1 (stereo not drawn) 39.8 µM [inhibitor, single point], NS(=O)(=O)OC[C@@H]1C[C@@H](n2ccc3c(N[C@H]4CCc5ccccc54)ncnc32)C[C@H]1O 2.71 µM [inhibitor, full curve, poor fit], O=C(Nc1ccc2nc(SCCOc3ccccc3Cl)sc2c1)c1ccco1 5.62 µM [inhibitor, partial curve, poor fit], COc1cccc(-c2nn(C)c3sc(C(=O)NCCc4cccc(C)c4)cc23)c1 31.6 µM [inhibitor, single point], CCOc1ccc(-c2nnc(SCC(=O)Oc3ccccc3)o2)cc1 10 µM [inhibitor, partial curve, poor fit], CCOc1ccc2c(c1)c(=O)c(C(=O)c1ccc3c(c1)OCO3)cn2Cc1cccc(F)c1 12.6 µM [inhibitor, single point], Cc1nnnn1-c1ccc(NS(=O)(=O)NCc2ccccc2)cc1 39.8 µM [inhibitor, single point], CCOCCCNC(=O)Cn1cc2c(n1)-c1c(oc(C(=O)N3CCCC3)c1C)CC2 7.94 µM [inhibitor, single point], COc1cccc(CN2CCc3nc(C(=O)Nc4nc(C)cs4)oc3CC2)c1 56.2 µM [inhibitor, single point]

Potency, inactive:
Cc1ccc(C#N)c(N2CCC3(CC2)CC(c2ccccc2)C(=O)N3C)n1 (stereo not drawn), C/C(=C\c1ccccc1)CN1CCC2(CC1)Cc1ccccc1CNC2=O, O=C(c1ccc2oc(-c3ccncc3)nc2c1)N1CCOCC1, COCCCNC(=O)c1c(-c2ccccc2)c(-c2ccccc2)nn(C)c1=O, Cc1ccccc1CCC1CCCN(CC(=O)N2CCOCC2)C1 (stereo not drawn), c1ccc2sc(SSc3nc4ccccc4s3)nc2c1, Cc1nn(C)cc1C(=O)N1CCC2(CC1)CN(c1ncccn1)CC2CO (stereo not drawn), N#Cc1cccc(-c2cn3cc(C(=O)NCc4cccc(Cl)c4)nc3s2)c1, O=C(c1ccc2c(c1)OCO2)N1CCC2(CC1)C(=O)Nc1ccccc12, Cc1nc(N2CCCC2)nc(N2CCC3(CC2)OCCCC3O)c1C (stereo not drawn), O=C(O)C[C@@H]1CCN(C(=O)Cc2ccccc2)C[C@@H]1CCN(CCN1CCOCC1)c1ccccc1, CCN(CC)Cc1ccc2c(c1)CN(C(=O)Nc1cccc(F)c1)CCO2, COc1ccccc1CCC(=O)N1CCCC2(C1)Nc1cccnc1NC2=NC1CCCC1 (stereo not drawn), COCCNC(=O)c1cccc2c1CCN2C(=O)C1CC1, Cc1ccccc1C(=O)N1CCCC1C(=O)N1CCC2(CC1)CC(=O)Nc1ccccc1O2 (stereo not drawn), Cc1noc(C)c1C(=O)N1CC(N(C)Cc2cccnc2)C1
